# Source: article PMC6451091
# This is one part of the list. For part of these data: At the low end of the ranking the order means little. For part of these data: The protein was read in a cell extract, so binding may be indirect.
# What was measured:
# Conditions in all cases: 20 mM HEPES pH 7.9, 100 mM NaCl, 1 mM DTT, 0.2 mg/mL BSA, 0.02% Triton X-100, 2% milk, 0.4 mg/mL salmon testes DNA; 1 h; temperature not stated; high values mean tight binding; double strand, one strand shown; sequences stand for … in GCCTAGCAC…GTGCTAGGTCTTGATTCGCTTGACGCTGCTG
# PU.1 (IVT) = PU.1 (IVT) (UniProt P17947); assay: protein-binding microarray (PBM)
# [1] = target: PU.1 (endogenous, THP-1 nuclear extract) (UniProt P17947); assay: nuclear extract protein-binding microarray (nextPBM)
# [2] = target: T1, FLI1 (endogenous, THP-1 nuclear extract) (UniProt Q01543); assay: as above
# T1 sequence: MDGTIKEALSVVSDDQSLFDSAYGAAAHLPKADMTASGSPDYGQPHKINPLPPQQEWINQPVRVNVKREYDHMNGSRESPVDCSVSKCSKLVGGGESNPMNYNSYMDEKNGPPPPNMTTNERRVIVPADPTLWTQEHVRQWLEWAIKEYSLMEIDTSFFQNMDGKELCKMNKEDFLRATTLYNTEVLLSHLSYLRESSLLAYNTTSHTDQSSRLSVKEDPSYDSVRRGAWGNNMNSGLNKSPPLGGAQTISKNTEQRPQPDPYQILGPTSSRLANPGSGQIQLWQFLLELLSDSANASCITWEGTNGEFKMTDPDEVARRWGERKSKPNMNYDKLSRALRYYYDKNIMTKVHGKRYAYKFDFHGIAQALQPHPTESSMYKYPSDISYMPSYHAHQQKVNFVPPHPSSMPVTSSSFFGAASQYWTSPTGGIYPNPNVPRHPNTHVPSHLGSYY
Sequence,binding signal (PU.1 (IVT)),binding signal [1],binding signal [2]
GATAAGAGGGAGTCCTCTGT,-0.726 z-score,-0.196 z-score,-0.395 z-score
AAAAAAAGGAACTGGCTAAA,4.07 z-score,3.95 z-score,1.38 z-score
CAAATGAGTAACTGATGCGG,-0.204 z-score,-0.0814 z-score,-1.01 z-score
GAAATCAGGAAGTGTGAATC,5.57 z-score,6.2 z-score,3.29 z-score
GGGAAGGGGAAGTGGCAGGG,5.39 z-score,5.68 z-score,2.55 z-score
TGAATGAGGAACTGAAAAAT,5.29 z-score,5.55 z-score,1.92 z-score
GAAAAGGGGAAGTAGATGAG,8.06 z-score,7.2 z-score,3.86 z-score
AAAAAAAGTAACTGGCTAGA,-0.337 z-score,-0.0989 z-score,-0.219 z-score
AAAAAAAGGCACTGGCTAGA,-0.164 z-score,-0.0472 z-score,-0.787 z-score
TGAAAAGGGAAGTGTGAAAG,5.09 z-score,5.57 z-score,2.12 z-score
GAAAAGAGGAACTGCATGGG,6.95 z-score,6.9 z-score,2.61 z-score
AGAAAGGGGAAGTGACTTGC,8.13 z-score,7.51 z-score,4.03 z-score
CTACTGAGGAAGTGTAAGCC,2.48 z-score,2.8 z-score,1.58 z-score
CAAAATGGGAAGTGGTACAT,5.4 z-score,5.15 z-score,2.3 z-score
TGGGAAAGGAAGTGAATCTG,2.42 z-score,2.48 z-score,2.69 z-score
TAGATGAGGAAGTGGAAGCA,5.67 z-score,6.06 z-score,3.01 z-score
CAAAAATGGAAGTGGATGCT,2.54 z-score,1.57 z-score,1.44 z-score
CCTTGGAGGAAGTGGTCAGA,3.25 z-score,3.27 z-score,2.4 z-score
GGAAAGAGGAACTGGAGCTG,5.94 z-score,6.36 z-score,2.63 z-score
TTAAGGAGGAAGTTTTGCAA,4.58 z-score,3.34 z-score,2.24 z-score
CGGAAGGGGAAGTGCTAAAC,5.63 z-score,6.05 z-score,5.08 z-score
AAATAAAGGAAGTGAAAAAC,4.97 z-score,4.99 z-score,2.56 z-score
GATGAAAGGAAGTGAAAATC,2.24 z-score,1.71 z-score,2.37 z-score
ACAAAAAGGAACTGTGCGCC,1.88 z-score,1.62 z-score,0.725 z-score
TATTTGGGGAAGTGTGTGAG,4.71 z-score,4.82 z-score,1.92 z-score
